Out of some 310,000 compounds screened, about 2,200 (0.71%) showed an effect of 50% or more. Effects have a minus sign here. The list shows a part of the results.
What follows are molecules tested against human ether-à-go-go-related gene (hERG) potassium channel (human, UniProt Q12809) (assay: primary screen, population patch clamp on CHO cells stably expressing hERG).
human ether-à-go-go-related gene (hERG) potassium channel, sequence (Q12809 whole entry, looked up): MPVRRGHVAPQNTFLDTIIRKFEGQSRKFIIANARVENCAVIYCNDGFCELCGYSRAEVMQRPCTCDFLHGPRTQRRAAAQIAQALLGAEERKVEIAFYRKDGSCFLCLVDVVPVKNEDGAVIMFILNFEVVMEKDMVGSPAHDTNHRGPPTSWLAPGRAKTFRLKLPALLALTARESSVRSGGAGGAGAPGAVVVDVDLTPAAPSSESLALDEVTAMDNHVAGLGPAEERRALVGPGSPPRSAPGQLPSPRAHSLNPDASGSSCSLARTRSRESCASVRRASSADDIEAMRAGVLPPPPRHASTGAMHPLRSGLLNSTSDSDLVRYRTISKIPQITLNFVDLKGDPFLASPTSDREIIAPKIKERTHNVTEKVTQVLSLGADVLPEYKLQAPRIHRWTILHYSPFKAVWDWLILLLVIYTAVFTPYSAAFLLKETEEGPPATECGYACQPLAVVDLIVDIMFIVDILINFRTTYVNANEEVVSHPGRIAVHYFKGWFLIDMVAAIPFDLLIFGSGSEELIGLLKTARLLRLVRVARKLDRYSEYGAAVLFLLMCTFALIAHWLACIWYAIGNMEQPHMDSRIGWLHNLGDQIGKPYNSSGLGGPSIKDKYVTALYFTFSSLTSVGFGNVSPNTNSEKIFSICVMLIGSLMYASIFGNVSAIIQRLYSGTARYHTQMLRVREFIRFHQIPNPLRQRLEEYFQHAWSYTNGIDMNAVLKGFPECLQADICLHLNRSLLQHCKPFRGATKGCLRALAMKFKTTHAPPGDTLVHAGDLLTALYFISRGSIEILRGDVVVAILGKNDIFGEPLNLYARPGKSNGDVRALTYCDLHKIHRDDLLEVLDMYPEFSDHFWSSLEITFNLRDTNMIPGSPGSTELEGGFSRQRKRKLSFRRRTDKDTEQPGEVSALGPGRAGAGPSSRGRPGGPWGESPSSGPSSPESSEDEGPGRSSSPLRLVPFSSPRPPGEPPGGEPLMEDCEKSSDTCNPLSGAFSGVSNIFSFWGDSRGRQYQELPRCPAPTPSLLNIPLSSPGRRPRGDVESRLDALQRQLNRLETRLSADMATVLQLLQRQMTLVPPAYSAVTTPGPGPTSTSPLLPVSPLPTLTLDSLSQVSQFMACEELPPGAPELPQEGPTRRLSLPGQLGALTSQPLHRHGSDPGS

Compared with `COc1ccc(C2=NOC(C)(c3sc(-c4ccc(Cl)cc4)nc3C)C2)cc1` (stereo not drawn), `COc1ccc(-n2c(CNC(=O)COc3ccc(Cl)cc3)n[nH]c2=S)cc1` is higher in “hERG current change (%, negative = inhibition) at 1uM” value: 16.3% for the first, 16.9% for the second.

First: Nc1c(C(=O)NCC2CCCO2)sc(=S)n1-c1ccccc1 (stereo not drawn)
Second: COc1ccc(N2CC(C(=O)Nc3nnc(Cc4ccccc4)s3)CC2=O)cc1 (stereo not drawn)
The “hERG current change (%, negative = inhibition) at 1uM” value of the first is lower: -1.36% for the first, 7.03% for the second.

Compared with `CC(C)(C)OC(=O)CNC(=O)c1[nH]cnc1C(=O)NCCCCC[NH3+].[Cl-]`, `CCOC(=O)c1[nH]c(C)c(C(=O)NCc2ccccn2)c1C` is lower in “hERG current change (%, negative = inhibition) at 1uM” value: 14% for the first, -1.38% for the second.

Going from `CC(C)NC(=O)C(C)N1CCN(S(=O)(=O)c2ccc3ccccc3c2)CC1` (stereo not drawn) to `CCN(CC(=O)Nc1cccc(S(=O)(=O)N2CCCC2)c1)CC(=O)Nc1ccccc1OC`, the “hERG current change (%, negative = inhibition) at 1uM” value falls from 9.27% to 9.22%.

First: CCCN(Cc1cc2ccccc2[nH]c1=O)C(=O)c1cccc([N+](=O)[O-])c1
Second: Cc1ccccc1C(=O)OC1OC(=O)C(Cl)=C1Nc1ccccc1 (stereo not drawn)
The “hERG current change (%, negative = inhibition) at 1uM” value of the first is lower: 5.23% for the first, 13.8% for the second.

Going from `O=S(=O)(c1ccc(F)cc1)n1ccc(-c2cnc(-c3ccccc3)s2)n1` to `Cc1ccc(-c2cc(C(=O)NCCc3ccc(S(N)(=O)=O)cc3)c3ccccc3n2)cc1`, the “hERG current change (%, negative = inhibition) at 1uM” value rises from 1.8% to 3.59%.

Going from `Cc1ccc(CSCC(=O)Nc2ccccc2F)cc1` to `O=C(CSCc1ccccc1Cl)N/N=C/c1ccco1`, the “hERG current change (%, negative = inhibition) at 1uM” value rises from 12% to 14.1%.

Going from `COC(=O)C1=C(c2ccc3ccccc3c2)C[C@@H]2CC[C@H]1N2C(=O)NCc1ccco1` to `O=C(Nc1ccccc1C(=O)NCc1ccco1)c1ccco1`, the “hERG current change (%, negative = inhibition) at 1uM” value falls from 6.98% to 4.62%.

First: Cc1cccc(-n2nnnc2SCn2nnc3ccccc3c2=O)c1
Second: COc1ccc(CCn2c(SCC(=O)Nc3cc(C)on3)nc3ccccc3c2=O)cc1OC
The “hERG current change (%, negative = inhibition) at 1uM” value of the first is higher: 5.97% for the first, 3.68% for the second.

First: COCCCNC(=O)Cn1c(=O)n(Cc2ccc(C(=O)NCCc3ccc(OC)c(OC)c3)cc2)c(=O)c2ccccc21
Second: CCOc1ccc(CCNC(=O)CSc2cc(=O)n(C)c3ccc(Cl)cc23)cc1OCC
The “hERG current change (%, negative = inhibition) at 1uM” value of the first is higher: 0.715% for the first, -7.23% for the second.

Going from `O=C(CN1C(=O)NC2(CCCc3ccccc32)C1=O)c1ccc(F)cc1` (stereo not drawn) to `Cc1cc(C(=O)CN2C(=O)NC3(CCCc4ccccc43)C2=O)c(C)n1Cc1cccs1` (stereo not drawn), the “hERG current change (%, negative = inhibition) at 1uM” value rises from 5.94% to 10.9%.

First: COc1cccc(CNS(=O)(=O)c2cc(CN3C(=O)c4cccnc4C3=O)ccc2OC)c1
Second: COc1ccc(CCC(=O)N2CCN(S(=O)(=O)c3cccc(C(F)(F)F)c3)CC2)cc1OC
The “hERG current change (%, negative = inhibition) at 1uM” value of the first is higher: 11.9% for the first, 1.18% for the second.

First: C=CCN1C(=O)CSc2ccc(C(=O)NC3CCCCC3)cc21
Second: O=C(O)CSc1nc2ccccc2n1C1CCCCC1
The “hERG current change (%, negative = inhibition) at 1uM” value of the first is higher: 16.9% for the first, 13.8% for the second.

First: N=C1/C(=C/c2cccs2)C(=O)N=C2SN=C(SCc3ccccc3)N12
Second: O=C(CCn1c(=O)oc2ccccc21)N(Cc1ccccc1)c1ccccn1
The “hERG current change (%, negative = inhibition) at 1uM” value of the first is higher: 6.6% for the first, -5.59% for the second.

First: COc1ccc(-c2nc3ccccc3n2OCC(=O)O)cc1
Second: COc1ccc(OCCCC(=O)N(C)CC(=O)Nc2c(C)cccc2C)cc1
The “hERG current change (%, negative = inhibition) at 1uM” value of the first is higher: 10.6% for the first, 4.32% for the second.

First: CCN(CC)S(=O)(=O)c1ccc(-c2nnc(SCC(=O)N3CCOCC3)o2)cc1
Second: CCN(CC)S(=O)(=O)c1ccc(NC(=O)c2cnc(C)cn2)cc1
The “hERG current change (%, negative = inhibition) at 1uM” value of the first is lower: 3.72% for the first, 13.4% for the second.

Going from `N=C1C(c2nc3ccccc3[nH]2)=C(O)CN1c1ccc(CC(=O)O)cc1` to `Cc1c(C2CC(=O)N(c3ccccc3)C2=O)[nH]n(-c2ccccc2)c1=O` (stereo not drawn), the “hERG current change (%, negative = inhibition) at 1uM” value rises from 9.74% to 12.6%.

Going from `O=C(COC(=O)/C=C/c1ccc(C(F)(F)F)cc1)NC1CCCC1` to `O=C(NC1CCCC1)C(c1ccncc1)N(C(=O)c1csnn1)c1ccccc1` (stereo not drawn), the “hERG current change (%, negative = inhibition) at 1uM” value falls from 9.55% to 7.99%.

First: Cn1c(=O)oc2cc(S(=O)(=O)N3CCCC(C(=O)NCc4ccc5c(c4)OCO5)C3)ccc21 (stereo not drawn)
Second: COc1ccc(OCCCC(=O)Nc2cccc(S(=O)(=O)N3CCCCCC3)c2)cc1
The “hERG current change (%, negative = inhibition) at 1uM” value of the first is lower: -2.37% for the first, 0.212% for the second.

Compared with `Cc1ccc(C(=O)N/N=C\c2sccc2C)cn1`, `Cc1cccc(NCC(=O)N/N=C\c2cccn2C)c1` is lower in “hERG current change (%, negative = inhibition) at 1uM” value: 9.72% for the first, 7.32% for the second.

First: N#Cc1cn(-c2ccccc2)nc1-c1cc2ccccc2oc1=O
Second: O=C(Oc1ccc(=O)n(-c2ccccc2)n1)c1cccc(Cl)c1
The “hERG current change (%, negative = inhibition) at 1uM” value of the first is higher: 13.4% for the first, 8.91% for the second.

Compared with `COc1ccc2nc(Nc3nc(-c4ccncc4)cs3)sc2c1`, `COC(=O)c1ccc(CSc2nnc(NCc3ccccc3)s2)o1` is lower in “hERG current change (%, negative = inhibition) at 1uM” value: 12% for the first, 2.86% for the second.

Going from `O=C(c1cccs1)N(Cc1cccc(F)c1)C1CCS(=O)(=O)C1` (stereo not drawn) to `O=S1(=O)CCO[C@H]2Cc3ccccc3[C@H]2N1Cc1cccc(C(F)(F)F)c1`, the “hERG current change (%, negative = inhibition) at 1uM” value rises from 1.22% to 8.71%.

Compared with `CNC(=O)Cc1nc2ccccc2n1CC(=O)Nc1cc(C)cc(C)c1`, `Cc1cc(C)cc(NC(=S)NCC2CCN(C(C)c3ccccc3)C2)c1` (stereo not drawn) is lower in “hERG current change (%, negative = inhibition) at 1uM” value: 2.79% for the first, -44.9% for the second.

Compared with `O=C(COC(=O)c1cncc(Br)c1)NCCC1=CCCCC1`, `CCOC(=O)c1ccc(N=c2sc(C(=O)OC)cc(=O)n2C2CC2)cc1` is lower in “hERG current change (%, negative = inhibition) at 1uM” value: 13.6% for the first, 7% for the second.

Compared with `CCOC(=O)c1ccn(-c2nc(-c3ccco3)cc(C(F)(F)F)n2)n1`, `CCCn1nnc(NC(=O)/C=C/c2ccco2)n1` is higher in “hERG current change (%, negative = inhibition) at 1uM” value: 8.49% for the first, 10.4% for the second.

Going from `CCOC(=O)c1c(C)[n+](-c2ccc(C)cc2)c(CC)c2cc(OC)c(OC)cc12.[Cl-]` to `COc1ccc(C2CC(c3ccc(Br)cc3)=NN2C(=O)CCC(=O)O)cc1OC` (stereo not drawn), the “hERG current change (%, negative = inhibition) at 1uM” value rises from 6.93% to 12.8%.

Compared with `C=CCOc1ccc(CNCCO)cc1OCC.Cl`, `COC(=O)c1ccc(COc2ccc(F)cc2)o1` is higher in “hERG current change (%, negative = inhibition) at 1uM” value: -6.01% for the first, 6.94% for the second.

First: O=C(CC1CCCCC1)NCc1ccccc1Cl
Second: Cc1nn(C)c(Cl)c1CN1CCCC(CCC(=O)NCc2ccccc2F)C1 (stereo not drawn)
The “hERG current change (%, negative = inhibition) at 1uM” value of the first is higher: 11.3% for the first, 8.42% for the second.

Going from `CC1CC(C)(C)NC(=S)N1CCC(=O)N1CCc2ccccc2C1` (stereo not drawn) to `CC(=O)NCCC(=O)N1CCCC(CNC(=O)c2ccc(-c3ccccc3)cc2)C1` (stereo not drawn), the “hERG current change (%, negative = inhibition) at 1uM” value rises from 9.34% to 9.78%.

Compared with `O=C(Nc1cccc2[nH]ncc12)c1ccc(F)cc1`, `O=C(c1ccc(Cl)c(S(=O)(=O)Nc2ccc(F)cc2)c1)N1CCN(c2ccccn2)CC1` is higher in “hERG current change (%, negative = inhibition) at 1uM” value: -1.68% for the first, 7.38% for the second.

Going from `Cc1cccc(NC(=O)c2cc(S(=O)(=O)N3CCOCC3)cn2C)c1C` to `Cc1c(C(=O)N2CCN(c3ccccc3F)CC2)sc2ncn(CC(=O)N3CCOCC3)c(=O)c12`, the “hERG current change (%, negative = inhibition) at 1uM” value falls from 9.61% to 0.425%.

First: O=C(CSc1ncn[nH]1)NCCCc1ccccc1
Second: Cc1oc(-c2ccccc2F)nc1CS(=O)CC(=O)NCc1ccccn1 (stereo not drawn)
The “hERG current change (%, negative = inhibition) at 1uM” value of the first is higher: 7.45% for the first, 7.41% for the second.

Going from `CCCCn1c2c(c3ccccc31)CCc1nonc1-2` to `O=C(NCCCN1CCCC1=O)c1nnc(Cc2c(F)cccc2Cl)o1`, the “hERG current change (%, negative = inhibition) at 1uM” value rises from 3.49% to 6.04%.

Compared with `COc1ccc(CN2C(=O)C(CC(C)C)Nc3ncnc(N4CCOCC4)c32)cc1.O=C(O)C(F)(F)F` (stereo not drawn), `COc1ccc(C(=O)c2coc3ccc(O)c(CN4CCOCC4)c23)cc1` is lower in “hERG current change (%, negative = inhibition) at 1uM” value: 13.6% for the first, 1.63% for the second.

First: CC1CCCCC1NC(=O)CN1C(=O)c2ccccc2S1(=O)=O (stereo not drawn)
Second: CCC(C)[C@@H](C(=O)NCC1CCC(C(=O)O)CC1)n1nnc2ccccc2c1=O (stereo partly drawn)
The “hERG current change (%, negative = inhibition) at 1uM” value of the first is higher: 11.9% for the first, -0.545% for the second.

First: CCOC(=O)C(=O)/C(=C\N(C)C)c1onc(-c2ccccc2Cl)c1C(=O)OC
Second: CCOC(=O)c1c(NC(=O)c2nn(CC)cc2Br)c(C#N)nn1-c1ccccc1
The “hERG current change (%, negative = inhibition) at 1uM” value of the first is higher: 6.39% for the first, 0.735% for the second.

Going from `CC(NC(=O)c1cc(Br)ccc1Br)c1ccccc1` (stereo not drawn) to `Cc1cccc(NC(=O)C2c3ccccc3Oc3ccccc32)n1`, the “hERG current change (%, negative = inhibition) at 1uM” value falls from 9.65% to 0.086%.

Going from `Cc1ccc2c(c1)C(c1ccc([N+](=O)[O-])cc1)=NNC(c1ccc(Br)cc1)=N2` to `O=c1[nH][nH]c(-c2ccccc2)c1C=Nc1cccc(Cl)c1`, the “hERG current change (%, negative = inhibition) at 1uM” value rises from 4.32% to 12.1%.

Compared with `CN(C)C(=O)/C(C#N)=C\c1cc(Br)c(Sc2ccc(Cl)cc2)o1`, `CC(C)(C)NC(=O)Cn1cc(C#N)c2cc(Br)ccc21` is higher in “hERG current change (%, negative = inhibition) at 1uM” value: 3.03% for the first, 6.59% for the second.

Compared with `Cc1ccc(C2CCN(C(=S)NC(C)C)C2)cc1` (stereo not drawn), `CCOC(=O)c1c(-c2ccc(OC)cc2)csc1NC(=O)C1CCCO1` (stereo not drawn) is lower in “hERG current change (%, negative = inhibition) at 1uM” value: 13.9% for the first, 13.4% for the second.

Going from `COC(=O)c1ccc(NC(=O)C2CCCN2S(=O)(=O)c2ccc(OC)cc2)cc1` (stereo not drawn) to `O=C(Nc1ccc(CN2CCCCC2)cc1)c1c(F)c(F)c(F)c(F)c1F`, the “hERG current change (%, negative = inhibition) at 1uM” value rises from -8.74% to -3.12%.

Compared with `CCCCC1(CCCC)C(=O)NC(=Nc2cccc(C)c2)NC1=O`, `CCc1ccc(C2C3=C(CCCC3=O)OC3=C2C(=O)CCC3)cc1` is lower in “hERG current change (%, negative = inhibition) at 1uM” value: 12.2% for the first, 12% for the second.

With `CC1/C(=N/O)C(CN(C)C)C2CC1C2(C)C.Cl` (stereo not drawn) the “hERG current change (%, negative = inhibition) at 1uM” value was 13.8%.

Source: publication PMC4336329 (PLoS ONE, 2015)
